PubChem BioAssay AID1508624 (National Center for Advancing Translational Sciences (NCATS), 2021)
The whole screen tested about 48,000 compounds, of which about 120 (0.25%) were called active. Another 4% or so got no clear call; they are omitted. Calls come from the whole dose curve; as a rule, active = well fitted activation curve with a large enough effect; inconclusive = small, poorly fitted or top-dose-only effect, or another doubt; inactive = no such curve, though single readings can be large or run the other way. Some of the results follow.

Experiment: Primary qHTS for Identification of Small Molecule Activators of Huntingtin-Antisense Promoter Activity; note: nearly all actives have a fitted effect of over 55% in size
Conditions: HEK293 HTT-AS promoter firefly luciferase reporter, 24 h; series mostly up to 57.5 µM; activity change, positive = activation: at the top concentration
Outline: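 Firefly luciferase signal from promoter-reporter HEK293 cells was scaled between vehicle (0%) and zero RLU (-100%). Compounds were tested at final concentrations of up to 57.5 uM over 24 h at 37 degrees C. PTC124 at 50 uM final served as control inhibitor.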

Activity change, positive = activation, inactive:
CCCCNC(=O)CN1CCN(c2ncc(NC(=O)c3ccc(Cl)cc3)cc2C(=O)O)CC1 -11.3%, COc1cc(NC(=O)C2CCN(c3nc4ccccc4nc3C(F)(F)F)CC2)cc(OC)c1 -18.3%, CCc1ccccc1N(CC)C(=O)C1CCN(c2ncnc3c2nc2n3CCCCC2)CC1 -30.1%, CCOC(=O)C(=O)c1csc(NC=O)n1 -2.31%, CCCOc1cccc(C2c3c(oc4ccc(F)cc4c3=O)C(=O)N2c2nc(C)c(C(C)=O)s2)c1 (stereo not drawn) -24.5%, Cc1cc2n(n1)CCC(=O)N2Cc1ccc(C(=O)Nc2cccc(C(F)(F)F)c2)cc1 -28.7%, Cc1ccc(C)c(NC(=O)CSc2nc(=O)n(Cc3ccncc3)c3c2CCC3)c1 -9.14%, CC(=O)N1c2ccc(S(=O)(=O)NCCC(=O)N(C)Cc3ccccc3)cc2CC1C (stereo not drawn) -14.3%, COC(=O)c1cc2sc(C)cc2n1Cc1nc(-c2ccc(C)cc2)oc1C -10.4%, CC(C)c1ccc(Nc2c(-c3ccc(N(C)C)cc3)nc3cnccn23)cc1 -1.23%, Cc1ccc(Nc2c(-c3ccc(C)cc3)nc3c(C)cccn23)cc1 -5.77%, O=C(NCCc1ccc(Cl)cc1)C(=O)NCC(c1cccs1)S(=O)(=O)c1ccccc1 (stereo not drawn) -25.2%, CCc1cccc(C)c1NC(=O)CCS(=O)(=O)c1ccc2c(c1)oc(=O)n2C -4.37% [at 11.5 µM, percent change from vehicle, -100% = no light], COc1cccc(CN(C(=O)c2oc3ccccc3c2C)C2CCS(=O)(=O)C2)c1 (stereo not drawn) -7.57%, O=C(Cc1ccc(Cl)cc1)Nc1ccc2oc(-c3ccccc3F)nc2c1 -32.1%, CNC(=O)c1c(NC(=O)Cc2coc3ccc(OC)cc23)sc2c1CCCC2 -12.5%, CN(C)CCC(c1ccccc1)c1ccccn1 (stereo not drawn) 0.0735%, COc1cc(OC)cc(C(=O)NCCc2csc(-c3ccc(C(F)(F)F)cc3)n2)c1 -30.6%, Cc1ccc(NC(=O)CCN2C(=O)c3ccccc3Sc3ncccc32)c(Cl)c1 -21.7%, COc1ccccc1NC(=O)c1sc2nc(C)c(C(=O)Nc3ccc(C)cc3C)c(-c3ccccc3Cl)c2c1N -10.6%, Cc1ccc2oc(=O)c3cc(C(=O)NCCc4ccc(Cl)cc4)sc3c2c1 -3.21%, CCS(=O)(=O)N1CCc2cc(C(=O)NCc3ccccc3Cl)ccc21 -12.1%, COc1ccc(NC(=O)C(C(C)C)N2Cc3ccccc3C2=O)cc1 (stereo not drawn) -16%, CCOc1ccccc1NS(=O)(=O)c1cc(-c2cnc(C3CC3)o2)ccc1C -23.5%, Cc1ccc(-n2nc3c(=O)n(C(C)C(=O)NCc4ccccc4C)nc(C)c3c2C)cc1 (stereo not drawn) -43%, CCc1ccccc1NC(=O)NC(CC)Cn1nnc2ccccc2c1=O (stereo not drawn) -4.55%, O=C(c1cc2ccc3cccnc3c2[nH]1)N1CCN(c2cccc(Cl)c2)CC1 -27.3%, Cc1ccc(C)c(CNC(=O)c2sc3ncnc(N(C)C4CCCCC4)c3c2C)c1 -13.6%, Cc1cc(F)ccc1NC(=O)CCSc1nc(-c2ccco2)cc(C(F)(F)F)n1 3.54% [at 11.5 µM, percent change from vehicle, -100% = no light], COC(=O)COc1ccc(Oc2nc(NC(C)(C)C)nc(N(C)C)n2)nn1 -15.4%, Cc1ccc(C(=O)NC2(C(F)(F)F)N=C(c3ccccc3)N(C3CCCCC3)C2=O)cc1 (stereo not drawn) -24.3%, COc1ccc(CNC(=O)c2cn(-c3cccc(OC)c3)c(=O)c3ccccc23)cc1 -14.6%, CCOC(=O)c1c(C)c(-c2ccccc2)n(CC(=O)Nc2cccc(C)c2C)c1C -10.6%
